Screen size: about 420,000 compounds; about 64,000 (15%) were called active. The shares of active, inactive and inconclusive entries below differ from those in the screen. Calls follow the shape of the dose curve; as a rule, active = well fitted inhibition curve with a large enough effect; inconclusive = small, poorly fitted or top-dose-only effect; inactive = flat fitted curve, though single readings scatter. Potencies of inconclusive entries are left out as doubtful fits.
Assay: qHTS for Inhibitors of human tyrosyl-DNA phosphodiesterase 1 (TDP1): qHTS in cells in absence of CPT; also: nearly all actives have a fitted effect of over 55% in size
Conditions: DT40 Tdp1-/- hTDP1 cells, no CPT, ATP luminescence, 48 h; activity change, negative = growth inhibition: at 46.2 µM (top of the series)
Outline: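 DT40 Tdp1-/-;hTDP1 cells, no CPT (DMSO vehicle only), 400 cells/well; compounds pin-transferred; ≥48 hr, 37 °C; CellTiter-Glo 30 min RT dark, luminescence read.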
% is scaled to controls: 0 for no effect and ±100 for the full control effect; potency is read from the fitted curve at half-maximal effect; tags tell the direction and shape of the fitted curve.

Compound | Potency | activity change, negative = growth inhibition
O=C1c2ccccc2C(=O)C1c1cc2ccccc2cn1 | active: 7.08 µM | –
COc1ccc(Nc2ncnc3c2cnn3Cc2ccccc2)cc1OC | inconclusive [inhibitor, single point] | –
CC1CCc2c(sc(NC(=O)CSc3nnc(-c4ccccc4)o3)c2C#N)C1 (stereo not drawn) | inconclusive [inhibitor, full curve, poor fit] | –
O=C(Nc1ccncc1)Nc1ccc(F)c(Cl)c1 | inconclusive [inhibitor, single point] | –
COc1ccc(NC(=S)Nc2cc(C)ccn2)c(OC)c1 | inconclusive [inhibitor, single point] | –
Cc1ccccc1OCC(O)Cn1c(N2CCCCC2)nc2c1c(=O)[nH]c(=O)n2C (stereo not drawn) | active: 8.2 µM | –
CC(=NCc1ccco1)C1=C(O)c2ccccc2C1=O | – | inactive: -22.6%
CCOC(=O)c1c(NC(=O)CN2CCCCC2)sc2c1CCN(C(=O)OCC)C2 | inconclusive [inhibitor, single point] | –
Cc1ccnc(Nc2nc(-c3ccc(O)cc3O)cs2)c1 | – | inactive: 2.7%
CCCn1c2ccccc2c2cnn(CC(=O)NC3CCN(Cc4ccccc4)CC3)c(=O)c21 | inconclusive [inhibitor, single point] | –
COc1cccc(Nc2nc3ccccc3c(=O)[nH]2)c1 | – | inactive: -29.7%
Fc1ccc(-c2noc3ncnc(Nc4ccc(F)cc4F)c23)cc1 | inconclusive [inhibitor, single point] | –
CCOC(=O)c1c(-c2ccc(C)o2)csc1NC(=O)CN1CCC(C(N)=O)CC1 | inconclusive [inhibitor, partial curve, poor fit] | –
COC(=O)CSc1nc2sc3c(c2c(=O)n1-c1ccccc1)CCN(C)C3 | inconclusive [inhibitor, partial curve] | –
O=C(CC1N=C2c3ccccc3N=C(SCc3ccc(F)cc3)N2C1=O)NC1CCCCC1 (stereo not drawn) | active: 16.4 µM | –
CCOc1ccc2nc(SCc3ccc(C(=O)OC)o3)[nH]c2c1 | inconclusive [inhibitor, full curve] | –
Cc1ccc2c(Cl)c(C(=O)NCCCn3ccnc3)sc2c1 | – | inconclusive: -34.9% [inhibitor]
CCOc1ccc(CCNC(=O)c2cccc(Nc3nc4ccccc4nc3-n3nc(C)cc3C)c2)cc1OCC | – | inactive: -11.9%
COc1ccc(S(=O)(=O)c2c(Nc3c(C)cccc3C)sc(C(=O)c3ccc(F)cc3)c2N)cc1 | active: 5.17 µM | –
CCC(=O)Nc1nc(C)c(-c2csc(Nc3cccc(O)c3)n2)s1 | active: 3.66 µM | –
CCCn1cc2c(c1-c1ccc(C)cc1)c(=O)n(C)c(=O)n2C | active: 20.6 µM | –
COC(=O)c1ccccc1NC(=O)C1=CC(c2ccc3c(c2)OCO3)=NS(=O)(=O)N1C | – | inactive: -5.28%
Cc1ccc(CNc2nc3ccc(Cl)cc3n3cnnc23)cc1 | inconclusive [inhibitor, partial curve, poor fit] | –

Compound | Potency | activity change, negative = growth inhibition
COc1cc(C(C)=O)ccc1O | inconclusive [inhibitor, single point] | –
COc1ccc(CC(=O)N2N=C(c3ccncc3)CC2(O)C(F)(F)F)cc1 (stereo not drawn) | active: 4.61 µM | –
COC(=O)COc1ccc2oc(=O)cc(-c3cc4cccc(OC)c4o3)c2c1 | – | inactive: 1.27%
COC(=O)[C@@]12CCCCN1[C@H](c1ccc(SC3CCCCC3)c(OC)c1)[C@@H]1C(=O)N(C)C(=O)[C@@H]12 | inconclusive [inhibitor, single point] | –
CCCSc1nc(N2CCOCC2)c2c(c1C#N)CC(C)(C)SC2 | inconclusive [inhibitor, partial curve] | –
Cc1cccc(-c2nc(CCNC(=O)COc3ccccc3)cs2)c1 | inconclusive [inhibitor, single point] | –
COc1ccc(CCNC(=O)Cn2nnc(-c3ccc(Cl)cc3)n2)cc1OC | – | inactive: -1.13%
CC(C)C(=O)Nc1cc(S(=O)(=O)N2CCOCC2)ccc1N1CCCCC1 | inconclusive [inhibitor, single point] | –
Cc1ccc(CN(Cc2ccco2)C(=O)c2ccc(Cl)cc2Cl)cc1 | inconclusive [inhibitor, single point] | –
Cc1nccn1CCCNC(=O)CC1C(=O)NCCN1Cc1ccc(F)cc1Cl (stereo not drawn) | – | inactive: 0.182%
COC(=O)[C@@]12C[C@@H](CC(=O)NCc3cccs3)C(=O)N(Cc3ccccc3)C1=CCC(C)(C)C2 | inconclusive [inhibitor, single point] | –
O=C(CSc1ccc(-c2cccs2)nn1)Nc1ccccc1 | active: 20.6 µM | –
Cc1ccc2c(C)c(C(=O)NCC(C)(C)N3CCOCC3)oc2c1C | inconclusive [inhibitor, partial curve] | –
Cc1cccc(NC(=O)CSc2ncc(-c3ccc(Br)cc3)[nH]2)c1 | inconclusive [inhibitor, single point] | –
Cc1nn2c(N3CCOCC3)c3c(nc2c1-c1ccccc1)CCCC3 | inconclusive [inhibitor, single point] | –
Cc1nc(CS(=O)(=O)c2ccc(Cl)cc2)cc(Sc2ccccc2Cl)n1 | inconclusive [inhibitor, single point] | –
CO/N=C(/CS(=O)(=O)Cc1ccccc1Cl)c1ccc(Cl)cc1Cl | – | inactive: -11.3%
COc1cc(C(=S)N2CCOCC2)ccc1OS(=O)(=O)c1ccc(C)cc1 | inconclusive [inhibitor, single point] | –
COc1ccc(CCNC(=O)/C=C/c2ccc(C)cc2)cc1OC | – | inconclusive: -31.5% [inhibitor]
COc1cccc(CNc2nc3ccccc3c3nc(-c4cccc(C)c4)nn23)c1 | inconclusive [inhibitor, single point] | –
COC(=O)[C@@]12CCCN1[C@H](c1ccc(-c3ccc(F)cc3)c(OC)c1)[C@H]1C(=O)N(C)C(=O)[C@H]12 | inconclusive [inhibitor, single point] | –
CC1(C(=O)NS(=O)(=O)c2cccc(C#N)c2)CCN1C(=O)CCc1ccccc1 (stereo not drawn) | – | inactive: 4.59%
COc1ccc(-c2cc(-c3ccccc3)nc(SCC(=O)Nc3ccccc3C)c2C#N)cc1 | – | inactive: 0.451%

Compound | Potency | activity change, negative = growth inhibition
COc1ccc(NC(=O)C2(C)CCN2C(=O)Cc2ccccc2)cc1OC (stereo not drawn) | inconclusive [inhibitor, single point] | –
COc1ccc(C#Cc2cnc3c(c2)C(=O)N([C@H](C)CO)C[C@H](C)[C@@H](CN(C)C(=O)Nc2cccc(OC)c2)O3)cc1 | inconclusive [inhibitor, single point] | –
CN1N/C(=C\c2ccccc2)N=C2C(=O)N(C)C(=O)N=C21 | inconclusive [inhibitor, full curve, poor fit] | –
O=C(NC(=S)Nc1ccccc1Br)C1CCCC1 | inconclusive [inhibitor, single point] | –
COc1ccc(Cn2nnnc2C(c2ccccn2)N2CCN(c3cc(Cl)ccc3C)CC2)cc1 (stereo not drawn) | inconclusive [inhibitor, single point] | –
CCC(C)C(=O)Nc1nccs1 (stereo not drawn) | – | inactive: 13.1%
CN(Cc1nc2ccccc2c(=O)[nH]1)C(=O)c1cccc(S(=O)(=O)N2CCc3ccccc32)c1 | inconclusive [inhibitor, single point] | –
Cc1ccc(-c2nc3cc(NC(=O)c4cc5ccccc5o4)ccc3o2)cc1Cl | inconclusive [inhibitor, single point] | –
Cc1cccc(C)c1NS(=O)(=O)c1cc2c3c(c1)CC(=O)N3CCC2 | – | inactive: 21.2%
COC(=O)c1ccc(NC(=O)CN2CCCN(Cc3ccc(Cl)cc3)S2(=O)=O)cc1 | inconclusive [inhibitor, single point] | –
CCN(CC)S(=O)(=O)c1cccc(NC(=O)c2ccc(Sc3nncn3C)c([N+](=O)[O-])c2)c1 | active: 23.1 µM | –
CC(C)c1c(C(=O)N/N=C/C=C/c2ccccc2)nnn1-c1nonc1N | inconclusive [inhibitor, single point] | –
CCOCCCn1c(SCC(=O)Nc2cc(C)ccc2C)nc2c(oc3ccccc32)c1=O | – | inactive: -14%
COc1cc(C)c(C)cc1S(=O)(=O)n1c(C)nc2ccccc21 | inconclusive [inhibitor, single point] | –
CC(C)C[C@@H](CN1CCC[C@@H]1CN1C(=O)C(=O)NC[C@@H]1Cc1ccccc1)N1C[C@H](Cc2ccc(O)cc2)N(CCc2ccccc2)C(=O)C1=O | inconclusive [inhibitor, single point] | –
Cc1ccc(S(=O)(=O)C[C@@H]2OC[C@H](C(C)C)N2S(=O)(=O)c2ccc(C)cc2)cc1 | active: 16.4 µM | –
NC(=O)c1ccc(NCCc2cccs2)cc1 | – | inactive: -6.69%
COc1cc(Cl)c(C)cc1NCC(=O)Nc1cccc(S(=O)(=O)N2CCCC2)c1 | inconclusive [inhibitor, single point] | –
Oc1ccc(-c2[nH]ncc2-c2ccc(Cl)cc2)c(O)c1 | inconclusive [inhibitor, partial curve] | –
Cc1ccc(OCc2ccc(C(=O)Nc3nc4ccccc4n3Cc3ccccc3)o2)c([N+](=O)[O-])c1 | inconclusive [inhibitor, single point] | –
CCOc1ccccc1N1CCN(C(=S)NC(=O)C23CC4CC(CC(C4)C2)C3)CC1 | active: 16.4 µM | –
COc1cccc(C(=O)/C=C/c2ccc(SC)cc2)c1 | inconclusive [inhibitor, single point] | –

— PubChem BioAssay AID686978 (National Center for Advancing Translational Sciences (NCATS), 2013)
